Test results taken from the supplement of paper PMC8728848.
This is one part of the list.

Assays:
Assay in all cases: glycan array binding signal (z-score within array); higher = stronger binding
Settings in all cases: glycan notation: IUPAC condensed, linker removed
[1] = biological target: Neu5Ac(a2-3)Gal(b1-3)[Fuc(a1-4)]GlcNAc
How it was run: (§1)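 Columns mapping to the same glycan were averaged after glycan names were converted to IUPAC-condensed notation. The data come from 3228 arrays in the Consortium for Functional Glycomics database, limited to those with an available protein sequence. Binding is reported as a within-array Z-score averaged across arrays of one protein sequence and across linkers.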

[2] = biological target: Neu5Ac(a2-3)Gal(b1-3)[Fuc(a1-4)]GlcNAc(b1-3)Gal(b1-4)[Fuc(a1-3)]GlcNAc
How it was run: as §1

[3] = biological target: Neu5Ac(a2-3)Gal(b1-3)[Neu5Ac(a2-3)Gal(b1-4)]GlcNAc
How it was run: as §1

[4] = biological target: Neu5Ac(a2-3)Gal(b1-3)[Neu5Ac(a2-6)]GalNAc
How it was run: as §1

Neu5Ac(a2-3)Gal(b1-4)Glc = biological target: Neu5Ac(a2-3)Gal(b1-4)Glc
How it was run: as §1

[5] = biological target: Neu5Ac(a2-3)Gal(b1-4)GlcNAc
How it was run: as §1

[6] = biological target: Neu5Ac(a2-3)Gal(b1-4)GlcNAc(b1-2)Man(a1-3)[GlcNAc(b1-2)Man(b1-4)GlcNAc(b1-2)Man(a1-6)]Man(b1-4)GlcNAc(b1-4)GlcNAc
How it was run: as §1

[7] = biological target: Neu5Ac(a2-3)Gal(b1-4)GlcNAc(b1-2)Man(a1-3)[Neu5Ac(a2-6)Gal(b1-4)GlcNAc(b1-2)Man(a1-6)]Man(b1-4)GlcNAc(b1-4)GlcNAc
How it was run: as §1

[8] = biological target: Neu5Ac(a2-3)Gal(b1-4)GlcNAc(b1-3)Gal(b1-3)GlcNAc
How it was run: as §1

[9] = biological target: Neu5Ac(a2-3)Gal(b1-4)GlcNAc(b1-3)Gal(b1-4)GlcNAc
How it was run: as §1

[10] = biological target: Neu5Ac(a2-3)Gal(b1-4)GlcNAc(b1-3)Gal(b1-4)GlcNAc(b1-3)Gal(b1-4)GlcNAc
How it was run: as §1

[11] = biological target: Neu5Ac(a2-3)Gal(b1-4)GlcNAc(b1-3)Gal(b1-4)[Fuc(a1-3)]GlcNAc
How it was run: as §1

[12] = biological target: Neu5Ac(a2-3)Gal(b1-4)GlcNAc(b1-6)[Gal(b1-3)]GalNAc
How it was run: as §1

[13] = biological target: Neu5Ac(a2-3)Gal(b1-4)GlcNAc(b1-6)[Neu5Ac(a2-3)Gal(b1-3)]GalNAc
How it was run: as §1

[14] = biological target: Neu5Ac(a2-3)Gal(b1-4)GlcNAc6S
How it was run: as §1

[15] = biological target: Neu5Ac(a2-3)Gal(b1-4)[Fuc(a1-3)]GlcNAc
How it was run: as §1

[16] = biological target: Neu5Ac(a2-3)Gal(b1-4)[Fuc(a1-3)]GlcNAc(b1-3)Gal
How it was run: as §1

[17] = biological target: Neu5Ac(a2-3)Gal(b1-4)[Fuc(a1-3)]GlcNAc(b1-3)Gal(b1-4)GlcNAc
How it was run: as §1

[18] = biological target: Neu5Ac(a2-3)Gal(b1-4)[Fuc(a1-3)]GlcNAc(b1-3)Gal(b1-4)[Fuc(a1-3)]GlcNAc(b1-3)Gal(b1-4)[Fuc(a1-3)]GlcNAc
How it was run: as §1

[19] = biological target: Neu5Ac(a2-3)Gal(b1-4)[Fuc(a1-3)]GlcNAc(b1-6)[Gal(b1-3)]GalNAc
How it was run: as §1

[20] = biological target: Neu5Ac(a2-3)Gal(b1-4)[Fuc(a1-3)]GlcNAc6S
How it was run: as §1

[21] = biological target: Neu5Ac(a2-3)Gal6S(b1-4)GlcNAc
How it was run: as §1

[22] = biological target: Neu5Ac(a2-3)Gal6S(b1-4)[Fuc(a1-3)]GlcNAc
How it was run: as §1

Neu5Ac(a2-3)GalNAc = biological target: Neu5Ac(a2-3)GalNAc
How it was run: as §1

[23] = biological target: Neu5Ac(a2-3)GalNAc(b1-4)GlcNAc
How it was run: as §1

[24] = biological target: Neu5Ac(a2-3)[GalNAc(b1-4)]Gal(b1-4)Glc
How it was run: as §1

[25] = biological target: Neu5Ac(a2-3)[GalNAc(b1-4)]Gal(b1-4)GlcNAc
How it was run: as §1

[26] = biological target: Neu5Ac(a2-3)[Neu5Ac(a2-6)]GalNAc
How it was run: as §1

Neu5Ac(a2-6)Gal = biological target: Neu5Ac(a2-6)Gal
How it was run: as §1

Neu5Ac(a2-6)Gal(b1-4)Glc = biological target: Neu5Ac(a2-6)Gal(b1-4)Glc
How it was run: as §1

[27] = biological target: Neu5Ac(a2-6)Gal(b1-4)GlcNAc
How it was run: as §1

[28] = biological target: Neu5Ac(a2-6)Gal(b1-4)GlcNAc(b1-2)Man(a1-3)[Gal(b1-4)GlcNAc(b1-2)Man(a1-6)]Man(b1-4)GlcNAc(b1-4)GlcNAc
How it was run: as §1

[29] = biological target: Neu5Ac(a2-6)Gal(b1-4)GlcNAc(b1-2)Man(a1-3)[GlcNAc(b1-2)Man(a1-6)]Man(b1-4)GlcNAc(b1-4)GlcNAc
How it was run: as §1

[30] = biological target: Neu5Ac(a2-6)Gal(b1-4)GlcNAc(b1-2)Man(a1-3)[GlcNAc(b1-2)Man(b1-4)GlcNAc(b1-2)Man(a1-6)]Man(b1-4)GlcNAc(b1-4)GlcNAc
How it was run: as §1

[31] = biological target: Neu5Ac(a2-6)Gal(b1-4)GlcNAc(b1-2)Man(a1-3)[Neu5Ac(a2-6)Gal(b1-4)GlcNAc(b1-2)Man(a1-6)]Man(b1-4)GlcNAc(b1-4)GlcNAc
How it was run: as §1

[32] = biological target: Neu5Ac(a2-6)Gal(b1-4)GlcNAc(b1-2)Man(a1-6)[Gal(b1-4)GlcNAc(b1-2)Man(a1-3)]Man(b1-4)GlcNAc(b1-4)GlcNAc
How it was run: as §1

[33] = biological target: Neu5Ac(a2-6)Gal(b1-4)GlcNAc(b1-2)Man(a1-6)[GlcNAc(b1-2)Man(a1-3)]Man(b1-4)GlcNAc(b1-4)GlcNAc
How it was run: as §1

[34] = biological target: Neu5Ac(a2-6)Gal(b1-4)GlcNAc(b1-3)Gal(b1-4)GlcNAc
How it was run: as §1

[35] = biological target: Neu5Ac(a2-6)Gal(b1-4)GlcNAc(b1-3)Gal(b1-4)[Fuc(a1-3)]GlcNAc(b1-3)Gal(b1-4)[Fuc(a1-3)]GlcNAc
How it was run: as §1

[36] = biological target: Neu5Ac(a2-6)Gal(b1-4)GlcNAc6S
How it was run: as §1

Neu5Ac(a2-6)GalNAc = biological target: Neu5Ac(a2-6)GalNAc
How it was run: as §1

[37] = biological target: Neu5Ac(a2-6)GalNAc(b1-4)GlcNAc
How it was run: as §1

Neu5Ac(a2-8)Neu5Ac = biological target: Neu5Ac(a2-8)Neu5Ac
How it was run: as §1

[38] = biological target: Neu5Ac(a2-8)Neu5Ac(a2-3)Gal(b1-4)Glc
How it was run: as §1

[39] = biological target: Neu5Ac(a2-8)Neu5Ac(a2-3)[GalNAc(b1-4)]Gal(b1-4)Glc
How it was run: as §1

[40] = biological target: Neu5Ac(a2-8)Neu5Ac(a2-8)Neu5Ac
How it was run: as §1

[41] = biological target: Neu5Ac(a2-8)Neu5Ac(a2-8)Neu5Ac(a2-3)Gal(b1-4)Glc
How it was run: as §1

[42] = biological target: Neu5Ac(a2-8)Neu5Ac(a2-8)Neu5Ac(a2-3)[GalNAc(b1-4)]Gal(b1-4)Glc
How it was run: as §1

[43] = biological target: Neu5Ac(a2-8)Neu5Ac(a2-8)Neu5Ac(a2-8)Neu5Ac(a2-3)[GalNAc(b1-4)]Gal(b1-4)Glc
How it was run: as §1

[44] = biological target: Neu5Ac(b2-6)Gal(b1-4)GlcNAc
How it was run: as §1

Neu5Ac(b2-6)GalNAc = biological target: Neu5Ac(b2-6)GalNAc
How it was run: as §1

[45] = biological target: Neu5Ac9Ac(a2-6)Gal(b1-4)GlcNAc
How it was run: as §1

[46] = biological target: Neu5Gc(a2-3)Gal(b1-3)GlcNAc
How it was run: as §1

[47] = biological target: Neu5Gc(a2-3)Gal(b1-3)[Fuc(a1-4)]GlcNAc
How it was run: as §1

Neu5Gc(a2-3)Gal(b1-4)Glc = biological target: Neu5Gc(a2-3)Gal(b1-4)Glc
How it was run: as §1

[48] = biological target: Neu5Gc(a2-3)Gal(b1-4)GlcNAc
How it was run: as §1

[49] = biological target: Neu5Gc(a2-3)Gal(b1-4)[Fuc(a1-3)]GlcNAc
How it was run: as §1

[50] = biological target: Neu5Gc(a2-6)Gal(b1-4)GlcNAc
How it was run: as §1

Neu5Gc(a2-6)GalNAc = biological target: Neu5Gc(a2-6)GalNAc
How it was run: as §1

[51] = biological target: Neu5Gc(b2-6)Gal(b1-4)GlcNAc
How it was run: as §1

B1: LYVE-1 (Homo sapiens), Q9Y5Y7 (protein)
chain: MARCFSLVLLLTSIWTTRLLVQGSLRAEELSIQVSCRIMGITLVSKKANQQLNFTEAKEACRLLGLSLAGKDQVETALKASFETCSYGWVGDGFVVISRISPNPKCGKNGVGVLIWKVPVSRQFAAYCYNSSDTWTNSCIPEIITTKDPIFNTQTATQTTEFIVSDSTYSVASPYSTIPAPTTTPPAPASTSIPRRKKLICVTEVFMETSTMSTETEPFVENKAAFKNEAAGDPEVKFNWYVDGVEVHNAKPREEQYNSTYRVVSLVTVLHQDWLNGKEYKCKVSNKALPAPIEKTISKAKGQPREPQVYTLPPSRDELTKNQVSLTCLVKGFYPSDIAVEWESNGQPENNYKTTPPVLDSDGSFFLYSKLTVDKSRWQQGNVFSCSVMHEALHNHYTQRSLSLSPGK
glycan array binding signal (z-score) [1]: -0.007 | glycan array binding signal (z-score) [2]: -0.424 | glycan array binding signal (z-score) [3]: -0.228 | glycan array binding signal (z-score) [4]: 0.133 | glycan array binding signal (z-score) (Neu5Ac(a2-3)Gal(b1-4)Glc): 0.324 | glycan array binding signal (z-score) [5]: -0.595 | glycan array binding signal (z-score) [6]: -0.128 | glycan array binding signal (z-score) [7]: -0.141 | glycan array binding signal (z-score) [8]: 1.41 | glycan array binding signal (z-score) [9]: 1.29 | glycan array binding signal (z-score) [10]: -0.095 | glycan array binding signal (z-score) [11]: -0.602 | glycan array binding signal (z-score) [12]: 3.43 | glycan array binding signal (z-score) [13]: 6.79 | glycan array binding signal (z-score) [14]: -0.351 | glycan array binding signal (z-score) [15]: -0.098 | glycan array binding signal (z-score) [16]: 0.531 | glycan array binding signal (z-score) [17]: -0.309 | glycan array binding signal (z-score) [18]: 5.13 | glycan array binding signal (z-score) [19]: -0.173 | glycan array binding signal (z-score) [20]: -0.17 | glycan array binding signal (z-score) [21]: -0.03 | glycan array binding signal (z-score) [22]: -0.005 | glycan array binding signal (z-score) (Neu5Ac(a2-3)GalNAc): -0.126 | glycan array binding signal (z-score) [23]: 3.73 | glycan array binding signal (z-score) [24]: -0.358 | glycan array binding signal (z-score) [25]: -0.558 | glycan array binding signal (z-score) [26]: -0.992 | glycan array binding signal (z-score) (Neu5Ac(a2-6)Gal): -0.135 | glycan array binding signal (z-score) (Neu5Ac(a2-6)Gal(b1-4)Glc): -0.332 | glycan array binding signal (z-score) [27]: -0.457 | glycan array binding signal (z-score) [28]: -0.704 | glycan array binding signal (z-score) [29]: -0.596 | glycan array binding signal (z-score) [30]: 0.502 | glycan array binding signal (z-score) [31]: 0.084 | glycan array binding signal (z-score) [32]: -0.553 | glycan array binding signal (z-score) [33]: -0.436 | glycan array binding signal (z-score) [34]: 0.979 | glycan array binding signal (z-score) [35]: -0.243 | glycan array binding signal (z-score) [36]: -0.237 | glycan array binding signal (z-score) (Neu5Ac(a2-6)GalNAc): 0.052 | glycan array binding signal (z-score) [37]: 2.4 | glycan array binding signal (z-score) (Neu5Ac(a2-8)Neu5Ac): -0.731 | glycan array binding signal (z-score) [38]: 1.68 | glycan array binding signal (z-score) [39]: -0.59 | glycan array binding signal (z-score) [40]: -0.429 | glycan array binding signal (z-score) [41]: -0.143 | glycan array binding signal (z-score) [42]: -0.129 | glycan array binding signal (z-score) [43]: 0.321 | glycan array binding signal (z-score) [44]: 0.625 | glycan array binding signal (z-score) (Neu5Ac(b2-6)GalNAc): -0.024 | glycan array binding signal (z-score) [45]: 0.046 | glycan array binding signal (z-score) [46]: -0.595 | glycan array binding signal (z-score) [47]: -0.356 | glycan array binding signal (z-score) (Neu5Gc(a2-3)Gal(b1-4)Glc): -0.428 | glycan array binding signal (z-score) [48]: 0.032 | glycan array binding signal (z-score) [49]: 2.16 | glycan array binding signal (z-score) [50]: 0.13 | glycan array binding signal (z-score) (Neu5Gc(a2-6)GalNAc): 0.62 | glycan array binding signal (z-score) [51]: -0.092
